The source of these data is the supplement of paper PMC4604168 (melanoma cell lines).

Test systems include 501Mel; A101D; A2058; A375.
Common to all, as to test: cell count relative to DMSO control; melanoma cells; higher = more viable cells
Holding throughout (conditions): library dose: standard library concentration; 72 h

The other results are listed elsewhere or left out. Repeats are few or missing, and single values can be far off.
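Note: cells treated in 1,536-well plates, then fixed and DAPI-stained, with nuclei counted from automated high-throughput microscope images.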

With `O=C(Nc1ccccc1)c1cc([N+](=O)[O-])ccc1Cl` + O=C(O)C(=O)Nc1sc2c(c1C(=O)O)CCNC2 [TCS401] (first compound 10 µM, partner dose 8.33333 µM), the cell count in the assay with 501Mel worked out at 70.2%; in the assay with A101D, 94.3%; in the assay with A2058 it was 96.6%; in the assay on A375, 146%.

For the compound `O=C(Nc1cc(C(F)(F)F)cc(C(F)(F)F)c1)c1cc(Cl)ccc1O` + O=C(O)C(=O)Nc1sc2c(c1C(=O)O)CCNC2 [TCS401] (first compound 0.08 µM, partner dose 8.33333 µM), the cell count in the assay on 501Mel stood at 99.6%; in the assay on A101D it was 99.7%; with A2058, 115%; in the assay on A375, 178%.

Take `Cn1nnc2c(C(N)=O)ncn2c1=O` [temozolomide] + O=C(Nc1ccccc1)c1cc([N+](=O)[O-])ccc1Cl [GW9662] (first compound 10 µM, partner dose 10 µM): the cell count in the assay on 501Mel is 58%; with A101D, 79.7%; with A2058 it was 34.7%; in the assay with A375, 116%.

For the compound `O=C(Nc1cc(C(F)(F)F)cc(C(F)(F)F)c1)c1cc(Cl)ccc1O` + COc1ccc(COc2ccc(Cc3cnc(N)nc3N)cc2OC)cc1 [GW2580] (first compound 0.08 µM, partner dose 5 µM), the cell count was 83.2% with 501Mel, 106% in the assay with A101D, 102% with A2058 and 102% in the assay on A375.

Consider `O=C(Nc1ccccc1)c1cc([N+](=O)[O-])ccc1Cl` + O=c1cc(-c2cccc3c2Sc2ccccc2S3)oc(N2CCOCC2)c1 [KU55933] (first compound 10 µM, partner dose 5 µM), for which the cell count in the assay with 501Mel was 83%; in the assay on A101D, 81.8%; in the assay with A2058 it was 90.2%; with A375 it was 135%.

For `O=C(Nc1cc(C(F)(F)F)cc(C(F)(F)F)c1)c1cc(Cl)ccc1O` + O=C(Nc1ccccc1)c1cc([N+](=O)[O-])ccc1Cl [GW9662] (first compound 0.08 µM, partner dose 10 µM), the cell count in the assay on 501Mel was 63.9%; with A101D it was 73.9%; in the assay on A2058 it was 96.4%; in the assay on A375, 102%.

Take `Cc1cc(N2CCOCC2)cc2[nH]c(-c3c(NC[C@@H](O)c4cccc(Cl)c4)cc[nH]c3=O)nc12` + O=C1NC(=O)/C(=C/c2ccc(-c3ccc(F)cc3O)o2)S1 [AS252424] (first compound 1 µM, partner dose 5 µM): the cell count with 501Mel is 47%; in the assay on A101D, 112%; with A2058, 111%; in the assay on A375, 150%.

As to `O=C(O)c1ccc2c(c1)nc(Nc1cccc(Cl)c1)c1ccncc12` + COc1ccc(-c2ccc3c(N4CCOCC4)nc(N4C[C@@H](C)O[C@@H](C)C4)nc3n2)cc1CO [KU0063794] (first compound 2 µM, partner dose 0.1 µM), the cell count in the assay on 501Mel turned out to be 96%; with A101D, 79.4%; with A2058, 76.3%; in the assay on A375, 84.6%.

As to `O=C(O)c1ccc2c(c1)nc(Nc1cccc(Cl)c1)c1ccncc12` + COc1cc2ncnc(Nc3ccc(Oc4ccccc4)cc3)c2cc1OC [SrcI1] (first compound 2 µM, partner dose 10 µM), the cell count in the assay with 501Mel stood at 74.4%; in the assay with A101D, 57.2%; in the assay on A2058, 75.1%; in the assay on A375 it was 98.2%.

Regarding `O=C(O)[C@@H]1[O][Sb](=[O])([O][Sb]2(=[O])[O][C@H]([C@H](O)CO)[C@H](O)[C@H](C(=O)O)[O]2)[O][C@H]([C@H](O)CO)[C@@H]1O` (stereo partly drawn) [stibogluconate] + CC(C)CCN1c2nc(Nc3cc(F)c(O)c(F)c3)ncc2N(C)C(=O)C1C [BID1870] (first compound 10 µM, partner dose 1 µM), the cell count in the assay on 501Mel is 79.7%; in the assay on A101D, 67.4%; in the assay with A2058, 100%; in the assay on A375, 160%.

As for `O=C(Nc1ccccc1)c1cc([N+](=O)[O-])ccc1Cl` + COC(=O)c1sccc1S(=O)(=O)Nc1ccc(Nc2ccccc2)cc1OC [GSK0660] (first compound 10 µM, partner dose 5 µM), the cell count with 501Mel was found to be 83.3%; in the assay with A101D, 93.1%; in the assay with A2058 it was 98.3%; in the assay with A375 it was 101%.

Take `Cn1nnc2c(C(N)=O)ncn2c1=O` [temozolomide] + O=C(O)C(=O)Nc1sc2c(c1C(=O)O)CCNC2 [TCS401] (first compound 10 µM, partner dose 8.33333 µM): the cell count turned out to be 80.8% with 501Mel, 77.1% with A101D, 42% with A2058 and 143% in the assay on A375.

`O=C(Nc1cc(C(F)(F)F)cc(C(F)(F)F)c1)c1cc(Cl)ccc1O` + Oc1nc(-c2ccc(C(F)(F)F)cc2)nc2c1CSCC2 [XAV939] (first compound 0.08 µM, partner dose 10 µM): the cell count with 501Mel stood at 102%; with A101D, 79.9%; in the assay with A2058, 78%; in the assay with A375, 86.9%.

For the compound `O=C(O)c1ccc2c(c1)nc(Nc1cccc(Cl)c1)c1ccncc12` + CCCCCCCCCCCC1=C(O)C(=O)C=C(O)C1=O [Embelin] (first compound 2 µM, partner dose 6 µM), the cell count with 501Mel is 87.1%; in the assay on A101D, 80.2%; in the assay on A2058, 71.2%; with A375, 108%.

On to `Cn1nnc2c(C(N)=O)ncn2c1=O` [temozolomide] + O=c1cc(-c2cccc3c2Sc2ccccc2S3)oc(N2CCOCC2)c1 [KU55933] (first compound 10 µM, partner dose 5 µM), for which the cell count with 501Mel was determined as 80.1%; in the assay with A101D, 76.8%; in the assay with A2058, 43.2%; in the assay on A375 it was 143%.

On to `O=C(Nc1ccccc1)c1cc([N+](=O)[O-])ccc1Cl` + CCN(CC)CCCCNc1ncc2cc(-c3cc(OC)cc(OC)c3)c(NC(=O)NC(C)(C)C)nc2n1 [PD173074] (first compound 10 µM, partner dose 0.5 µM), for which the cell count in the assay on 501Mel was 85.7%; in the assay on A101D, 85.2%; in the assay on A2058, 88%; in the assay on A375, 141%.

Consider `O=C(O)[C@@H]1[O][Sb](=[O])([O][Sb]2(=[O])[O][C@H]([C@H](O)CO)[C@H](O)[C@H](C(=O)O)[O]2)[O][C@H]([C@H](O)CO)[C@@H]1O` (stereo partly drawn) [stibogluconate] + O=C(O)C(=O)Nc1sc2c(c1C(=O)O)CCNC2 [TCS401] (first compound 10 µM, partner dose 8.33333 µM), for which the cell count in the assay with 501Mel was determined as 109%; in the assay with A101D, 91.5%; in the assay on A2058, 91.3%; with A375, 135%.

As to `Cc1cc(N2CCOCC2)cc2[nH]c(-c3c(NC[C@@H](O)c4cccc(Cl)c4)cc[nH]c3=O)nc12` + O=C(Nc1ccccc1)c1cc([N+](=O)[O-])ccc1Cl [GW9662] (first compound 1 µM, partner dose 10 µM), the cell count with 501Mel worked out at 58.4%; in the assay with A101D, 102%; in the assay with A2058 it was 89.9%; in the assay on A375, 126%.

On to `Cc1cc(N2CCOCC2)cc2[nH]c(-c3c(NC[C@@H](O)c4cccc(Cl)c4)cc[nH]c3=O)nc12` + CCc1ccc(CCOc2ccc(CC3SC(=O)NC3=O)cc2)nc1 [pioglitazone] (first compound 1 µM, partner dose 10 µM), for which the cell count in the assay with 501Mel was found to be 56.7%; in the assay on A101D it was 90.9%; in the assay with A2058, 88.6%; in the assay with A375 it was 112%.

`O=C(O)[C@@H]1[O][Sb](=[O])([O][Sb]2(=[O])[O][C@H]([C@H](O)CO)[C@H](O)[C@H](C(=O)O)[O]2)[O][C@H]([C@H](O)CO)[C@@H]1O` (stereo partly drawn) [stibogluconate] + Cc1cc([N+](=O)[O-])ccc1NS(=O)(=O)c1cc(Cl)ccc1Cl [FH535] (first compound 10 µM, partner dose 5 µM): the cell count was determined as 62.1% in the assay with 501Mel, 55.7% in the assay on A101D, 83.4% in the assay with A2058 and 76.5% with A375.

Take `Cc1cc(N2CCOCC2)cc2[nH]c(-c3c(NC[C@@H](O)c4cccc(Cl)c4)cc[nH]c3=O)nc12` + COc1ccc(-c2ccc3c(N4CCOCC4)nc(N4C[C@@H](C)O[C@@H](C)C4)nc3n2)cc1CO [KU0063794] (first compound 1 µM, partner dose 0.1 µM): the cell count was determined as 54.6% in the assay with 501Mel, 96.2% with A101D, 92.1% in the assay on A2058 and 111% with A375.

Turning to `O=C(O)[C@@H]1[O][Sb](=[O])([O][Sb]2(=[O])[O][C@H]([C@H](O)CO)[C@H](O)[C@H](C(=O)O)[O]2)[O][C@H]([C@H](O)CO)[C@@H]1O` (stereo partly drawn) [stibogluconate] + O=C(Nc1ccccc1)c1cc([N+](=O)[O-])ccc1Cl [GW9662] (first compound 10 µM, partner dose 10 µM), the cell count in the assay on 501Mel amounted to 61.9%; in the assay with A101D it was 87.4%; in the assay on A2058 it was 97.8%; with A375 it was 175%.
